From PubChem BioAssay AID686979 (National Center for Advancing Translational Sciences (NCATS), 2013)
Among all 420,000 compounds or so, about 50,000 (12%) were called active. This list was built around the results that the source calls inconclusive (neither active nor inactive); the mix of calls is not that of the screen. Calls follow the shape of the dose curve; as a rule, active = well fitted inhibition curve with a large enough effect; inconclusive = small, poorly fitted or top-dose-only effect; inactive = flat fitted curve, though single readings scatter. No potency is given beside an inconclusive call; the fits are too rough.
% is scaled to controls: 0 for no effect and ±100 for the full control effect; potency is read from the fitted curve at half-maximal effect; tags tell the direction and shape of the fitted curve.

Experiment: qHTS for Inhibitors of human tyrosyl-DNA phosphodiesterase 1 (TDP1): qHTS in cells in presence of CPT; also: nearly all actives have a fitted effect of over 55% in size
Conditions: chicken DT40 Tdp1-/-;hTDP1 cells + 20 nM CPT, ATP luminescence, 48 h; activity change, negative = growth inhibition: at 46.2 µM (top of the series) unless noted
In short: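 Chicken DT40 Tdp1-/- cells stably complemented with human TDP1 were seeded at 400 cells/well in medium containing 20 nM camptothecin, exposed to pin-transferred compounds, and grown at 37 °C for at least 48 hr. Viability was read as ATP luminescence.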
In the case of Cc1ccccc1-c1noc(C23CC4CC(CC(C4)C2)C3)n1, the Potency is reported as inconclusive [inhibitor, single point].
For CCCCCCCNC1=CC(=O)CC(c2ccccc2)C1 (stereo unspecified), the Potency was active: 6.51 µM.
With Cc1ccc(NC(=S)NN(C)c2cc(C)nc(C)n2)cc1 the “activity change, negative = growth inhibition” value was inactive: 5.74%.
In the case of CCOC(=O)CSc1c(-c2cccs2)[nH]c2ccccc12, the “activity change, negative = growth inhibition” value is reported as inactive: 22.5%.
In the case of O=C(Nc1ccncc1)c1cc(S(=O)(=O)N2CCN(c3ccccc3)CC2)ccc1Cl, the Potency is reported as inconclusive [inhibitor, single point].
With O=C(NCC1CCCO1)c1cc(-c2ccccc2F)no1 (stereo unspecified) the Potency was inconclusive [inhibitor, single point].
With COc1ccc(NC(=S)NCCN2CCOCC2)c(OC)c1 the “activity change, negative = growth inhibition” value was inactive: -7.29%.
For CCOc1ccc(NC(=O)CN2CCN(S(=O)(=O)c3ccc(Cl)cc3)CC2)cc1, the Potency was inconclusive [inhibitor, single point].
With O=C(Nc1ccc(Cl)c(Cl)c1)C1C2C=CC3(O2)C1C(=O)N(CCN1CCCCC1)C3C(=O)NC1CCCCC1 (stereo unspecified) the Potency was inconclusive [inhibitor, single point].
In the case of Cc1cc(C)cc(OCC(=O)OCC(=O)NCc2ccco2)c1, the “activity change, negative = growth inhibition” value is reported as inactive: -12.1%.
With O=C(Nc1nc2ccc(Cl)cc2s1)[C@@H]1CCCN1C(=O)c1cccs1 the “activity change, negative = growth inhibition” value was inactive: -13.7%.
For Cc1ccc(C)c(NC(=O)CN2C(=O)c3cccc4cccc2c34)c1, the activity change, negative = growth inhibition was inconclusive: -30.4% [inhibitor].
With CCc1ccc(OCC(=O)N2CCN(c3ccccc3F)CC2)cc1 the “activity change, negative = growth inhibition” value was inactive: -22.2%.
In the case of Cc1ccc(CNc2oc(-c3ccco3)nc2C#N)cc1, the “activity change, negative = growth inhibition” value is reported as inactive: 17.8%.
In the case of CCc1ccc(Nc2nnc(SCC(=O)N(C)CC(=O)Nc3ccccc3CC)s2)cc1, the Potency is reported as active: 18.4 µM.
With CCN1/C(=C/c2cc[n+](C)cc2)C=Cc2cc(C)ccc21 the Potency was active: 0.231 µM.
For O=C(Nc1cccc2c1CCCC2)c1ccccc1F, the Potency was inconclusive [inhibitor, single point].
With COCCNC(=O)c1ccc(-n2c(SCc3cccnc3)nc3ccccc3c2=O)cc1 the “activity change, negative = growth inhibition” value was inactive: 2.47%.
With Cc1cccc(Cn2ccn(Cc3ccc(Cl)cc3)c(=O)c2=O)c1 the Potency was inconclusive [inhibitor, partial curve].
For COc1ccc2c(c1)[C@H]1[C@H](CO2)[C@H](c2ccccc2)[C@]2(C)C(=O)Nc3ccc(F)cc3C(=O)N12, the Potency was inconclusive [inhibitor, single point].
In the case of COCCN1C(=O)c2ccccc2C(C(=O)Nc2ccc3c(c2)OCCO3)C1c1ccc(F)cc1 (stereo unspecified), the Potency is reported as inconclusive [inhibitor, single point].
For O=C(O)C1C2C=CC(O2)C1C(=O)Nc1ccc(S(=O)(=O)N2CCc3ccccc32)cc1 (stereo unspecified), the “activity change, negative = growth inhibition” value was inactive: -21.9%.
For CN(C)C(=O)CCc1ccc2c3c([nH]c2c1)[C@]1(C)[C@@H](C(=O)N2CCCCC2)C[C@H](CC(=O)NCCC2=CCCCC2)C(=O)N1CC3, the Potency was inconclusive [inhibitor, single point].
In the case of O=C(O)C1CCN(Cc2oc(CO)cc(=O)c2O)C1 (stereo unspecified), the Potency is reported as inconclusive [inhibitor, single point].
For COc1ccc(OC)c(CN2C(=O)c3ccccc3C2c2nnnn2C(C)C)c1 (stereo unspecified), the Potency was inconclusive [inhibitor, partial curve].
With O=C(COC(=O)c1ccc(O)cc1)NCCCc1ccccc1 the “activity change, negative = growth inhibition” value was inactive: 0.963%.
In the case of CCc1nnc(NC(=O)c2ccc(S(=O)(=O)N(CC)Cc3ccccc3)cc2)o1, the Potency is reported as active: 11.6 µM.
In the case of Cc1ccc(/C=C/C(=O)Nc2sc(C)c(C)c2C(=O)OC(C)C)o1, the Potency is reported as inconclusive [inhibitor, single point].
With C=C(C)C(=O)Nc1ccc2nn(-c3ccccc3O)nc2c1 the “activity change, negative = growth inhibition” value was inactive: -12.9%.
For CCCCCC(=O)N1c2ccccc2C(C)(c2ccccc2)CC1(C)C (stereo unspecified), the Potency was inconclusive [inhibitor, single point].
In the case of CCN(CC)CCN(C(=O)c1ccc(C(=O)c2ccccc2)cc1)c1nc2cc3c(cc2s1)OCO3, the Potency is reported as inconclusive [inhibitor, partial curve].
For Cc1ccc(S(=O)(=O)N(C)C[C@H]2Oc3cc(C#CC4CCCC4)ccc3S(=O)(=O)N([C@H](C)CO)C[C@H]2C)cc1, the Potency was active: 18.4 µM.
For CCN(CC)S(=O)(=O)c1cccc(-c2nnc(SC(C)C(=O)NCCC3=CCCCC3)o2)c1 (stereo unspecified), the Potency was inconclusive [inhibitor, single point].
For O=C1CN(/N=C/c2ccc(-c3ccc([N+](=O)[O-])cc3)o2)C(=O)N1, the Potency was inconclusive [inhibitor, single point].
For COc1ccc(-c2cc(=O)oc3c(C)c(OC(C)C(C)=O)ccc23)cc1 (stereo unspecified), the Potency was inconclusive [inhibitor, single point].
With CCn1c(CNc2ccc(Cl)cc2)nnc1SCc1ccccc1 the Potency was inconclusive [inhibitor, partial curve].
For COc1ccc(CNc2ncncc2-c2cccnc2)c(OC)c1, the “activity change, negative = growth inhibition” value was inactive: -0.959%.
For CC(Cc1ccccc1)NC(=O)/C=C/c1ccc([N+](=O)[O-])cc1 (stereo unspecified), the Potency was active: 25.9 µM.
For O=C(c1ccc2c(c1)N(Cc1ccccc1)C(=O)c1ccccc1S2(=O)=O)N1CCCC1, the Potency was active: 11.6 µM.
In the case of O=C(O)c1nn(CC(=O)N2CCN(c3ccccc3)CC2)c(=O)c2ccccc12, the “activity change, negative = growth inhibition” value is reported as inactive: -10.8%.
With Fc1cccc(CCN2CCNC[C@@H]2Cc2ccccc2)c1 the Potency was inconclusive [inhibitor, single point].
In the case of COc1cccc(CCNC(=O)Cn2c(-c3cccs3)cc3ccccc32)c1, the Potency is reported as active: 20.6 µM.
In the case of COc1cc(C(=O)NCCCN(C)C)ccc1OCC(=O)Nc1cccc(C(F)(F)F)c1, the Potency is reported as inconclusive [inhibitor, single point].
For COc1ccc(-c2cc(-c3ccc(N)cc3)nc(N)c2C#N)cc1OC, the Potency was inconclusive [inhibitor, single point].
In the case of O=C1C=C(c2ccccc2C(F)(F)F)C[C@@H](c2ccc3c(c2)OCO3)C1, the Potency is reported as inconclusive [inhibitor, single point].
For CC1(c2cccc(Br)c2)NC(=O)N(CC(=O)Nc2ccc(N3CCCCC3)cc2)C1=O (stereo unspecified), the Potency was inconclusive [inhibitor, single point].
